Experimental data: PubChem BioAssay AID1460 (National Center for Advancing Translational Sciences (NCATS), 2008)
The whole screen tested about 270,000 compounds, of which about 5,800 (2.1%) were called active. The inconclusive results got no clear call from the source; some entries with a clear call stand among them for comparison. Calls come from the whole dose curve; as a rule, active = well fitted inhibition curve with a large enough effect; inconclusive = small, poorly fitted or top-dose-only effect; inactive = flat fitted curve, though single readings scatter. Potencies of inconclusive entries are doubtful fits and often do not repeat.

Molecular target: Microtubule-associated protein tau (Homo sapiens) (UniProt P10636)
Assay: qHTS for Inhibitors of Tau Fibril Formation, Thioflavin T Binding; note: nearly all actives have a fitted effect of over 55% in size
Settings: recombinant tau K18 P301L, heparin-induced fibrillization, ThT fluorescence; series mostly up to 57.4 µM; activity, negative = inhibition: at the top concentration
Outline: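 Fibril formation assay: tau K18 P301L at 15 uM with trace Alexa 594 label, heparin inducer 20 uM, pH 7 sodium acetate buffer, 37 C for 6 hr; endpoint ThT signal.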
% is set by controls: 0 for no effect and ±100 for the full control effect; potency is the fitted concentration of half-maximal effect; tags give direction and shape of the fitted curve.

Sequence of UniProt P10636 (P10636 whole entry, looked up): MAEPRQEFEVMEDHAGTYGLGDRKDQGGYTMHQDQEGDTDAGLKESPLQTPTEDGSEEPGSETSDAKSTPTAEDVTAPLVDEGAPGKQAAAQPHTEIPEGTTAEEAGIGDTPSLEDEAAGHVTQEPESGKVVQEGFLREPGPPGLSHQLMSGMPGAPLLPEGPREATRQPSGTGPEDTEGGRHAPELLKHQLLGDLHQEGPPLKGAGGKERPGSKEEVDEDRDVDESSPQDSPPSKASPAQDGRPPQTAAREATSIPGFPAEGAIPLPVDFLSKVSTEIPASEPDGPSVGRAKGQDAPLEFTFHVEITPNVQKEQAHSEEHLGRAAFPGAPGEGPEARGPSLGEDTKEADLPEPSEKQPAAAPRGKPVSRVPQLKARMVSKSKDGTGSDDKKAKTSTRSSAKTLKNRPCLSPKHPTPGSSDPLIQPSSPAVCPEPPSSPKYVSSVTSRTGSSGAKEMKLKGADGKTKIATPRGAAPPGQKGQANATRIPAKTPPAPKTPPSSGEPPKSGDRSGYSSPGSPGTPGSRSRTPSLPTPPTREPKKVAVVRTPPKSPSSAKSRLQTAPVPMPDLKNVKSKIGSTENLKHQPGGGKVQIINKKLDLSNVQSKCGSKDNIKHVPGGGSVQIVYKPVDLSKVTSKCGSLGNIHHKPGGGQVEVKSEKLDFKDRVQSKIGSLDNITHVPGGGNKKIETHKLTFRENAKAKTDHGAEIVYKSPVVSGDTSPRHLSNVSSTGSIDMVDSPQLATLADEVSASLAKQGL

Row | SMILES | Potency | activity, negative = inhibition
1 | COc1ccc(/C=C/c2noc(-c3ccccc3O)n2)cc1OC | inconclusive: 0.398 µM [inhibitor, partial curve, poor fit] | –
2 | Cc1ccc(O)c(NC(=O)c2cccc(S(=O)(=O)N3CCCCC3)c2)c1 | inconclusive: 35.5 µM [inhibitor, single point] | –
3 | CC(=O)c1ccc(-n2c(C)ccc2-c2ccccc2)cc1 | inconclusive: 25.1 µM [inhibitor, partial curve] | –
4 | Cc1c(NC(=O)/C=C/c2cn(-c3ccccc3)nc2-c2ccc(F)cc2)c(=O)n(-c2ccccc2)n1C | inconclusive: 31.6 µM [inhibitor, single point] | –
5 | CCCn1c(SCC(=O)N2c3ccccc3CC2C)nnc1-c1ccco1 (configuration not stated) | – | inactive: -1.16%
6 | Cn1c(=O)c2c(nc(CN3CCOCC3)n2CCc2ccccc2)n(C)c1=O | – | inactive: -9.61%
7 | CC(=O)Nc1cccc(OCCCNC(=O)c2ccc(C(C)(C)C)cc2)c1 | inconclusive: 0.282 µM [inhibitor, full curve, poor fit] | –
8 | O=C(c1ccc2c(c1)N(Cc1ccccc1)C(=O)c1ccccc1S2(=O)=O)N1CCN(c2ccccn2)CC1 | – | inactive: 9.08%
9 | CCC(=Nc1ccccc1O)C1=C(O)CC(c2ccccc2)CC1=O (configuration not stated) | inconclusive: 20 µM [inhibitor, partial curve] | –
10 | CC1=NN(c2ccccc2)C(=O)C1C(=O)c1ccccc1 (configuration not stated) | – | inactive: -7.87%
11 | Cc1ccc(-c2ccc(/C=N/O)o2)cc1[N+](=O)[O-] | inconclusive: 15.8 µM [inhibitor, partial curve] | –
12 | Cc1c(OC(=O)CNC(=O)OC(C)(C)C)ccc2c3c(c(=O)oc12)CCC3 | inconclusive: 1.12 µM [inhibitor, partial curve] | –
13 | O=C(Cn1c2ccccc2c(=O)c2ccccc21)Nc1cccc(F)c1 | – | inactive: -7.59%
14 | Cc1cnc(C(=O)Nc2ccc(C)c(S(=O)(=O)N(C)C)c2)cn1 | – | inactive: -0.941%
15 | CC1CC(C)CN(C(=O)COC(=O)c2cc3ccccc3cc2O)C1 (configuration not stated) | inconclusive: 39.8 µM [inhibitor, single point] | –
16 | COc1ccc(N2CCN(S(=O)(=O)c3ccc4c(c3)CCCC4)CC2)c([N+](=O)[O-])c1 | – | inactive: -8.47%
17 | COc1ccc(NC(=O)c2sc3nc(C)c(C(=O)Nc4ccc(Cl)cc4)c(-c4ccc(Br)cc4)c3c2N)cc1 | inconclusive: 2 µM [inhibitor, full curve, poor fit] | –
18 | Cc1ccc(CSc2nc3ccccc3cc2C=O)cc1 | – | inactive: 4.94%
19 | N#CCSc1nc2cc(C(=O)N3CCCC3)ccc2c(=O)n1Cc1ccccc1 | – | inactive: -7.97%
20 | Cn1c(CNc2nc3ccccc3n2C)nc2ccccc21 | – | inactive: -5.05%
21 | Cc1c(Cl)cccc1NC(=O)CCn1nc(C)c2c(C)n(-c3ccccc3)nc2c1=O | – | inactive: 7.46%
22 | CCC(=O)Nc1cc(C(=O)O)ccc1Sc1ccc(C)cc1 | – | inactive: -4.03%
23 | COc1ccc(C(=O)/C(=C/O)N=Nc2ccc(F)cc2)cc1 | active: 28.2 µM | –
24 | COC(=O)c1cc2c(C)nn(-c3ccccc3)c2s1 | – | inactive: -15.7%
25 | CCOc1cc(C(=O)Nc2ccc3c4c(cccc24)C(=O)N3CC)cc(OCC)c1OCC | inconclusive: 28.2 µM [inhibitor, partial curve] | –
26 | Cc1cc(C)cc(-n2nnc(-c3nc(-c4ccccc4F)no3)c2C)c1 | – | inactive: 1.48%

Row | SMILES | Potency | activity, negative = inhibition
27 | COc1cc(NS(=O)(=O)c2ccc3c(c2)CCCN3C(C)=O)cc(OC)c1OC | – | inactive: 6.87%
28 | O=C(Nc1ccc2c(c1)OCO2)C1CCN(C(=O)CSc2ncnc3ccccc23)CC1 | inconclusive: 17.8 µM [inhibitor, partial curve] | –
29 | Cc1ccc(CN2CCN(CC(=O)NCc3ccccc3Cl)C2=O)cc1 | – | inactive: -2.87%
30 | FC(F)Sc1ccc(NC(=S)NC2CCCC2)cc1 | – | inactive: 5.24%
31 | Cc1cc(C)n(-c2nc3ccccc3nc2Nc2cc(C(=O)O)ccc2C)n1 | inconclusive: 31.6 µM [inhibitor, partial curve, poor fit] | –
32 | C/C(=N\NC(=O)C(=O)Nc1ccc(C)c(Cl)c1)c1ccncc1 | inconclusive: 10 µM [inhibitor, partial curve] | –
33 | O=[N+]([O-])c1cc(/C=N\Nc2nccs2)ccc1O | active: 12.6 µM | –
34 | CC(/C=N/NC(=O)c1ccccn1)=C\c1ccco1 | inconclusive: 12.6 µM [inhibitor, partial curve] | –
35 | COc1cccc(-c2cc(C(=O)Nc3ccc(C)cc3)[nH]n2)c1 | – | inactive: 16.5%
36 | Cc1ccc2sc(N3CCN(C(=O)CCS(=O)(=O)c4ccc(F)cc4)CC3)nc2c1C | inconclusive: 2 µM [inhibitor, full curve] | –
37 | COc1ccc(S(=O)(=O)n2nc(OC(=O)C3CCCCC3)cc2N)cc1 | inconclusive: 25.1 µM [inhibitor, partial curve] | –
38 | CCCCC(=O)Nc1ccc(C(=O)NNC(=S)NC(=O)c2cccs2)cc1 | inconclusive: 12.6 µM [inhibitor, partial curve] | –
39 | CCOC(=O)C1(Cc2cccc(OC)c2)CCN(Cc2cccnc2)CC1 | inconclusive: 10 µM [inhibitor, partial curve] | –
40 | COc1cccc(C(=O)Nc2ccc(NC(C)=O)cn2)c1 | – | inactive: -2.68%
41 | NCCCN1CCOCC1 | – | inactive: 1.92%
42 | COc1ccccc1C(=O)NCCn1cc(SCc2ccccc2Cl)c2ccccc21 | inconclusive: 10 µM [inhibitor, partial curve, poor fit] | –
43 | CC1=CC(C)(C)Nc2ccc(OC(=O)c3ccco3)cc21 | inconclusive: 28.2 µM [inhibitor, single point] | –
44 | COc1ccc(-c2nc(-c3ccccc3)c(-c3ccc(O)cc3)[nH]2)cc1 | inconclusive: 12.6 µM [inhibitor, partial curve] | –
45 | CCOc1ccccc1NC(=O)NCCn1c(=O)oc2ccc(C)cc21 | – | inactive: -15.9%
46 | Cc1cccc(NC(=O)/C=C/c2ccc(Cl)cc2)n1 | – | inactive: -7.8%
47 | Cc1ccc(C(=O)C[n+]2cc(Br)cc(Br)c2)cc1 | inconclusive: 28.2 µM [inhibitor, single point] | –
48 | COc1ccccc1C(=O)N/C(=N/c1nc(C)cc(C)n1)Nc1ccccc1 | inconclusive: 0.0708 µM [inhibitor, full curve, poor fit] | –
49 | CN(C)c1ccc(N/C=C/C(=O)c2ccccc2)cc1 | active: 1.78 µM | –
50 | Oc1c(Cl)cc(Cl)cc1C=Nc1ccc2c(c1)OCCO2 | active: 15.8 µM | –
51 | COc1ccc(C2CC(=O)C(C=NCCN3CCN(C(=S)Nc4ccccc4)CC3)=C(O)C2)cc1OC (configuration not stated) | inconclusive: 17.8 µM [inhibitor, partial curve, poor fit] | –
52 | N[C@@H](CSS(=O)(=O)O)C(=O)O | active: 12.6 µM | –

Row | SMILES | Potency | activity, negative = inhibition
53 | COc1ccc(C(=O)n2nc(-c3ccco3)nc2NCc2cccs2)cc1 | inconclusive: 25.1 µM [inhibitor, single point] | –
54 | CCc1ccc(-c2nc(C(N)=O)c3[nH]c(=O)n(-c4ccccc4OC)c3n2)cc1 | – | inactive: -14.4%
55 | CCNC(=S)N(CCc1c(C)[nH]c2ccc(C)cc12)Cc1cccs1 | inconclusive: 20 µM [inhibitor, partial curve] | –
56 | COC(=O)c1ccccc1NC(=O)c1ccc(Cn2cc(Cl)cn2)o1 | – | inactive: -3.56%
57 | CS(=O)(=O)Nc1cccc(-c2nccc(-n3ccnc3)n2)c1 | – | inactive: -20.2%
58 | C/C(=N\NC(=O)C1CCCN(S(=O)(=O)c2ccccc2)C1)c1ccccn1 (configuration not stated) | – | inactive: -25.8%
59 | Cc1ccccc1-c1nc(CS(=O)(=O)CC(=O)NCc2cccc(Cl)c2)c(C)o1 | – | inactive: -16%
60 | CC1=Nc2ccccc2/C1=C/c1c(N)n2c(S(=O)(=O)CC(C)C)nsc2nc1=O | inconclusive: 12.6 µM [inhibitor, partial curve] | –
61 | O=C(Cc1ccccc1)NCCc1cccc(Cl)c1 | – | inactive: 3.99%
62 | C/C(=N\NC(=O)c1ccc(OC2OCCOC2Oc2ccc(C(=O)N/N=C(\C)c3ccncc3)cc2)cc1)c1ccncc1 (configuration not stated) | inconclusive: 14.1 µM [inhibitor, partial curve] | –
63 | NC(=O)c1c(NC(=O)COC(=O)CSc2nnc(-c3ccc(Cl)cc3)o2)sc2c1CCC2 | inconclusive: 7.08 µM [inhibitor, partial curve] | –
64 | Cc1ccc2nc(SCC(=O)NCc3cccs3)c(C#N)cc2c1 | – | inactive: 6.48%
65 | O=C(c1ccc(N2CCCC2=O)cc1)N1CCCCCC1 | – | inactive: -1.13%
66 | CCC(C)(C)NC(=O)CN(C(=O)CCC(=O)Nc1cc(C)ccn1)c1ccc2c(c1)OCO2 | – | inactive: -14.1%
67 | CC1CCc2c(sc(NC(=O)c3nc4ncccn4n3)c2C#N)C1 (configuration not stated) | inconclusive: 31.6 µM [inhibitor, single point] | –
68 | CCSc1ccccc1C(=O)NCc1ccco1 | – | inactive: -9.06%
69 | Cc1ccccc1NS(=O)(=O)c1nnc(NC(=O)c2ccccc2C)s1 | inconclusive: 2.24 µM [inhibitor, full curve] | –
70 | CCCCC(c1nnnn1CC1CCCO1)N1CCN(c2nc3ccccc3s2)CC1 (configuration not stated) | inconclusive: 3.98 µM [inhibitor, partial curve, poor fit] | –
71 | CCOC(=O)c1ccc(Nc2ncnc3c2cnn3-c2cccc(Cl)c2)cc1 | inconclusive: 39.8 µM [activator, single point] | –
72 | COc1cc(OC)cc(-c2ncc3ccccn23)c1 | inconclusive: 25.1 µM [inhibitor, partial curve] | –
73 | Cc1cccc(C(=O)N2CCC(=O)N(C(COCc3ccc(Cl)cc3)Cc3ccccc3)CC2)c1 (configuration not stated) | inconclusive: 20 µM [inhibitor, partial curve] | –
74 | N=c1c2c(ncn1Cc1ccco1)Oc1ccc3ccccc3c1C2c1ccccc1 (configuration not stated) | – | inactive: -10%
75 | Cn1c(-c2ccccc2)c(CCO)c2ccccc21 | – | inactive: 11.2%
76 | Cc1ccc(NC(=O)N2CCc3cc(S(=O)(=O)N4CCC(C)CC4)ccc32)cc1C | – | inactive: 9%
77 | O=C(Nc1ccc(F)cc1)C1CC(=O)n2c(nc3ccccc32)N1 (configuration not stated) | – | inactive: 7.11%
